Experimental data reported in PubChem BioAssay (Tox21).
Values joined by “and” are separate entries in the source; they are usually repeats but may differ in a detail not shown here. Identical values can stand only once. The inconclusive results got no clear call from the source; some entries with a clear call stand among them for comparison. Potencies of inconclusive entries are doubtful fits and often do not repeat. Some structures have more than one record in an assay (separate samples or runs), and their calls can disagree. Active and inactive are the calls of the source. Calls come from the whole dose curve; as a rule, active = well fitted activation curve with a large enough effect in the repeat runs; inconclusive = weak or mixed curves; inactive = flat fitted curve, though single readings scatter.

Test: A CellTox Green Cytotoxicity Assay to monitor cytotoxicity in HEK293 cells - 32 hour (AID 1224881); note: nearly all actives have a fitted effect of over 40% in size
Conditions: CellTox Green fluorescence; series mostly up to 76.8 µM
Summary of the method: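 Each value comes from one timepoint of a single continuous run in which HEK293 cells with CellTox Green were exposed to compound for up to 40 h at 37 C, dye fluorescence rising with cell death.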
Potency is the fitted concentration of half-maximal effect; tags give direction and shape of the fitted curve.

| Compound | Potency |
| --- | --- |
| O=C(O)COc1nc(Cl)c(Cl)cc1Cl | inconclusive: 22.4 µM [activator, single point] |
| O=P(Oc1ccccc1)(Oc1ccccc1)Oc1ccccc1 | inconclusive: 12.2 µM [activator, single point] and inactive |
| Oc1ccc(C2(c3ccc(O)cc3)CCCCC2)cc1 | inconclusive: 52.1 µM [activator, single point] |
| NCCCNCCCN | active: 62.6 µM |
| CN1CSC(=S)N(C)C1 | active: 6.13 µM and active: 9.75 µM |
| C[C@H]1CCCC(=O)CCC/C=C/c2cc(O)cc(O)c2C(=O)O1 | inconclusive: 53 µM [activator, single point] |
| ClC(Cl)=C(c1ccc(Cl)cc1)c1ccc(Cl)cc1 | inconclusive: 56.3 µM [activator, single point] and inconclusive: 27.5 µM [activator, partial curve] |
| O=P(O)(O)CN(CP(=O)(O)O)CP(=O)(O)O | inconclusive: 54.9 µM [activator, single point] |
| c1cc(OCC2CO2)ccc1Cc1ccc(OCC2CO2)cc1 (stereo not given) | inconclusive: 55.2 µM [activator, partial curve, poor fit] |
| COc1cccc(C(=O)CCN[C@@H](C)[C@H](O)c2ccccc2)c1 | inconclusive: 26.8 µM [activator, single point] |
| C[C@]12CC[C@H](O)CC1=CC[C@@H]1[C@@H]2CC[C@]2(C)C(=O)CC[C@@H]12 | inconclusive: 38.9 µM [activator, partial curve, poor fit] |
| Oc1cccc2cccnc12 | active: 17.5 µM and inconclusive: 5.84 µM [activator, partial curve] and active: 6.16 µM |
| C=CCC1=C(C)[C@@H](OC(=O)[C@@H]2[C@@H](C=C(C)C)C2(C)C)CC1=O | inconclusive: 61.6 µM [activator, single point] |
| CCC[CH2][Sn]([CH2]CCC)([CH2]CCC)[O]C(=O)c1ccccc1 | active: 0.977 µM |
| C(=NC1CCCCC1)=NC1CCCCC1 | active: 19.6 µM and active: 24.5 µM |
| O=[N+]([O-])c1cc([N+](=O)[O-])c2ccccc2c1 | inconclusive: 12.3 µM [activator, single point] |
| CC(=O)O[C@H]1CC[C@@]2(C)C(=CC[C@@H]3[C@@H]2CC[C@]2(C)C(=O)CC[C@@H]32)C1 | inconclusive: 54.9 µM [activator, single point] |
| O=[N+]([O-])c1ccc(O)c([N+](=O)[O-])c1 | inconclusive: 55.2 µM [activator, single point] and inconclusive: 21.9 µM [activator, partial curve, poor fit] |
| C1=Cc2cccc3cccc1c23 | inconclusive: 54 µM [activator, single point] and active: 49 µM |

Test: A CellTox Green Cytotoxicity Assay to monitor cytotoxicity in HepG2 cells - 0 hour (AID 1224882); note: nearly all actives have a fitted effect of over 35% in size
Conditions: CellTox Green fluorescence; series mostly up to 76.8 µM
Summary of the method: (§1)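 Continuous culture of HepG2 cells with a membrane-impermeant DNA dye; rising fluorescence marks dead cells. Compound exposure lasted up to 40 h at 37 C, with reads every 8 h from 0 h.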

| Compound | Potency |
| --- | --- |
| O=C(O)COc1nc(Cl)c(Cl)cc1Cl | inconclusive: 25.1 µM [activator, partial curve, poor fit] |
| Oc1cc(Cl)ccc1Oc1ccc(Cl)cc1Cl | active: 50.1 µM |
| COP(=O)(OC)O/C(=C\Cl)c1cc(Cl)c(Cl)cc1Cl | inactive |

Test: A CellTox Green Cytotoxicity Assay to monitor cytotoxicity in HepG2 cells - 32 hour (AID 1224883); note: nearly all actives have a fitted effect of over 50% in size
Conditions: CellTox Green fluorescence; series mostly up to 76.8 µM
Summary of the method: as §1

| Compound | Potency |
| --- | --- |
| Oc1cc(Cl)ccc1Oc1ccc(Cl)cc1Cl | active: 43 µM and active: 23.9 µM |
| ClC(Cl)=C(c1ccc(Cl)cc1)c1ccc(Cl)cc1 | inconclusive: 56.3 µM [activator, single point] and inactive |
| COP(=O)(OC)O/C(=C\Cl)c1cc(Cl)c(Cl)cc1Cl | inconclusive: 54.9 µM [activator, single point] |
| COC[C@@H](NC(C)=O)C(=O)NCc1ccccc1 | inactive |
| O=c1[nH]c2ccccc2n1C1CCN(CCCC(c2ccc(F)cc2)c2ccc(F)cc2)CC1 | inconclusive: 4.25 µM [activator, full curve, poor fit] |
| CCCCCCCCc1ccc(O)cc1 | active: 42.7 µM |
| COc1cccc(C(=O)CCN[C@@H](C)[C@H](O)c2ccccc2)c1 | inconclusive: 26.8 µM [activator, single point] |
| C[C@]12CC[C@H](O)CC1=CC[C@@H]1[C@@H]2CC[C@]2(C)C(=O)CC[C@@H]12 | inconclusive: 43.6 µM [activator, partial curve] |
| C=CCN1C[C@H](C)N([C@H](c2ccc(C(=O)N(CC)CC)cc2)c2cccc(OC)c2)C[C@H]1C | inconclusive: 21.3 µM [activator, partial curve] |
| O=C1C(Cl)=C(Cl)C(=O)c2ccccc21 | active: 15.5 µM and active: 4.9 µM |
| C(=NC1CCCCC1)=NC1CCCCC1 | active: 11 µM and active: 12.3 µM |
| CCOC(=O)CC(=O)CCl | inactive |
| CCC[CH2][Sn]([Cl])([Cl])[CH2]CCC | active: 351 nM and active: 490 nM |
